Measurements published in PubChem BioAssay AID686978 (National Center for Advancing Translational Sciences (NCATS), 2013).
Hit rate of the full screen: of about 420,000 compounds, about 64,000 (15%) were called active. The inconclusive results got no clear call from the source; some entries with a clear call stand among them for comparison. Calls come from the whole dose curve; as a rule, active = well fitted inhibition curve with a large enough effect; inconclusive = small, poorly fitted or top-dose-only effect; inactive = flat fitted curve, though single readings scatter. No potency is given beside an inconclusive call; the fits are too rough.

Assay: qHTS for Inhibitors of human tyrosyl-DNA phosphodiesterase 1 (TDP1): qHTS in cells in absence of CPT; note: nearly all actives have a fitted effect of over 55% in size
Conditions: DT40 Tdp1-/- hTDP1 cells, no CPT, ATP luminescence, 48 h; activity change, negative = growth inhibition: at 46.2 µM (top of the series) unless noted
Summary of the method: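 Stably hTDP1-transfected Tdp1-null chicken DT40 cells were treated with library compounds minus camptothecin and grown for at least 48 hr at 37 °C, after which cellular ATP was quantified by luminescence.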
% is set by controls: 0 for no effect and ±100 for the full control effect; potency is the fitted concentration of half-maximal effect; tags give direction and shape of the fitted curve.

Compound | Potency | activity change, negative = growth inhibition
COc1cccc(CC(=O)Nc2ccc3c(c2)c(=O)n(C)n3-c2ccc(C(C)(C)C)cc2)c1 | inconclusive [inhibitor, single point] | –
O=c1c2c3c(sc2n2cnnc2n1-c1ccccc1)N(Cc1ccccc1)CCC3 | inconclusive [inhibitor, single point] | –
COC(=O)C1=C(CS(=O)(=O)c2ccccc2)NC(=O)NC1c1ccc(OC)c(OC)c1 (configuration not stated) | inconclusive [inhibitor, single point] | –
O=c1c(-c2cccs2)nc2cnc(Oc3ccccc3)nc2n1C1CC1 | inconclusive [inhibitor, single point] | –
O=C(NCCc1ccccc1)c1cccc2c(-c3cccnc3)coc12 | inactive | –
CC1CCN(c2cc(N3CCOCC3)c(F)cc2[N+](=O)[O-])CC1 | inconclusive [inhibitor, partial curve] | –
CCCCc1nc2c(C)c(N)cnc2n1Cc1cccc([N+](=O)[O-])c1 | inconclusive [inhibitor, single point] | –
CC(=O)CC1c2cc(F)ccc2C=C(c2ccsc2)N1c1ccc(-c2cccnc2)cc1 (configuration not stated) | inconclusive [inhibitor, single point] | –
CN1CCN(CC#CCn2c3ccccc3c3ccccc32)CC1 | inconclusive [inhibitor, single point] | –
Cc1cccc(C(=O)Oc2cccc3c(O)cccc23)c1 | inactive | –
CNC(=S)N1CCN(c2ccccn2)CC1 | inactive | –
Cn1c(=O)c2c(nc(Br)n2CCc2ccccc2)n(C)c1=O | inconclusive [inhibitor, single point] | –
CC(C)(C)c1cc(N2CCOCC2)n2ncc(-c3ccc(Cl)cc3)c2n1 | active: 13 µM | –
CC(C(=O)NC1CCS(=O)(=O)C1)N1C(=O)/C(=C/c2ccc(Cl)cc2)SC1=S (configuration not stated) | inconclusive [inhibitor, single point] | –
O=C(c1ccc(Cl)c(S(=O)(=O)N2CCCC2)c1)N1CCCC(C(F)(F)F)C1 (configuration not stated) | inconclusive [inhibitor, single point] | –
Cc1ccc(N(C)S(=O)(=O)c2ccc(C)cc2)cc1 | inconclusive [inhibitor, single point] | –
COc1ccc(CCNC(=O)COC(=O)c2cc(S(=O)(=O)N3CCOCC3)ccc2C)cc1OC | inconclusive [inhibitor, single point] | –
Cc1cccc(C)c1Nc1c(-c2ccccc2F)nc2cccc(C)n12 | inactive | –
COc1ccc(OCC(=O)Nc2nnc(S(=O)(=O)N3CCc4ccccc43)s2)cc1 | inconclusive [inhibitor, single point] | –
Cc1ccc(C)c(S(=O)(=O)N2CCN(C(=O)c3cncc(Br)c3)CC2)c1 | – | inconclusive: -34.8% [inhibitor]
CCc1cc2c(=O)c(-c3nc(C)cs3)coc2cc1OC(C)C(=O)NCCO (configuration not stated) | inconclusive [inhibitor, single point] | –
C[C@@H](NC(=O)Cn1ccc(NC(=O)OCc2ccccc2)nc1=O)c1cccc2ccccc12 | inconclusive [inhibitor, single point] | –
Cc1cccc2cc(CN(CC3CCCO3)C(=O)c3cnccn3)c(=O)[nH]c12 (configuration not stated) | inactive | –

Compound | Potency | activity change, negative = growth inhibition
O=C(c1ccoc1)N1CCC2(CC1)Oc1ccc(F)cc1C(=O)C21CC(c2ccccc2)=NO1 (configuration not stated) | inconclusive [inhibitor, single point] | –
CCOC(=O)C1CCN(C(=O)c2ccc(Br)o2)CC1 | inactive | –
CCOC(=O)C1=CCN(S(=O)(=O)c2ccccc2F)C1c1cccc(Br)c1 (configuration not stated) | inconclusive [inhibitor, single point] | –
O=S(=O)(NN=Cc1cccc(Cl)c1)c1ccccc1 | inconclusive [inhibitor, single point] | –
C=C1C(=C/C=C2\CCC[C@]3(C)[C@@H]([C@H](C)CCCC(C)(C)O)CC[C@@H]23)C[C@@H](O)C[C@@H]1O | inconclusive [inhibitor, partial curve, poor fit] | –
CCCCN(CC)CCNC(=O)c1c(C)oc2ncnc(N3CCOCC3)c12 | inactive | –
c1ccc(OCc2nc3c4c(ncn3n2)-c2ccccc2CC42CCCC2)cc1 | inconclusive [inhibitor, partial curve] | –
CC(C)(C)c1ccc(NS(=O)(=O)c2ccc(N)cc2)cc1 | inconclusive [inhibitor, single point] | –
OC[C@@H]1CN(Cc2cccs2)C[C@H](n2cnc3c(NC4CCCC4)ncnc32)O1 | inconclusive [inhibitor, single point] | –
CCSc1nc(-c2ccccc2)c(-c2ccccc2)n1CC(O)CO (configuration not stated) | inconclusive [inhibitor, single point] | –
CN(c1ccccc1C(=O)N1CCN(c2cccc(Cl)c2)CC1)S(C)(=O)=O | inactive | –
CC1CCN(C(=O)C(NS(=O)(=O)c2cccc3nsnc23)c2ccccc2)CC1 (configuration not stated) | inactive | –
CCOc1ccc(C(=O)/C=C/c2cn(CC(O)CN3CCCCCC3)c3ccccc23)cc1 (configuration not stated) | inconclusive [inhibitor, single point] | –
COc1ccc2sc(-c3ccc(S(C)(=O)=O)cc3)c(C(=O)NCCCN3CCCC3=O)c2c1 | inconclusive [inhibitor, partial curve, poor fit] | –
O=C(NCC1CCCO1)c1ccc(CS(=O)(=O)c2ccc(Cl)cc2)o1 (configuration not stated) | inactive | –
Cc1ccc(S(=O)(=O)c2c(COC(=O)c3cccc(Cl)c3)c(-c3ccccc3)nn2C)cc1 | inconclusive [inhibitor, single point] | –
CCOC(=O)C1=C(COC(=O)/C=C/c2ccc(OC)c(OC)c2)NC(=O)NC1C (configuration not stated) | inconclusive [inhibitor, single point] | –
C=CCc1cccc2cc(C(=O)NC3CCCC3)c(=O)oc12 | inactive | –
Cc1ccccc1C(=O)Nc1cc2c(cc1N1CCOCC1)n(C)c(=O)n2C | inconclusive [inhibitor, single point] | –
O=C(NCc1ccccc1)c1ccc(-c2ccc(F)cc2)o1 | inactive | –
CCOC(=O)c1ccccc1NC(=O)C1CCN(c2ncnc3c2nc2n3CCCCC2)CC1 | inactive | –
Cc1cccc(NC(=O)CN2CCN(CC(=O)NCc3ccc(Cl)cc3Cl)CC2)c1C | inconclusive [inhibitor, single point] | –
CCC1(C)CC(=O)c2c(ccc3oc(C(=O)NCc4ccccc4)c(C)c23)O1 (configuration not stated) | active: 16.4 µM | –

Compound | Potency | activity change, negative = growth inhibition
Cc1cc(OC(C)C(=O)NCc2cccnc2)c2c(C)cc(=O)oc2c1 (configuration not stated) | inactive | –
CCOC(=O)Nc1ccc2c(c1)N(C(=O)C(C)N1CCCC1)c1ccccc1CC2 (configuration not stated) | inconclusive [inhibitor, partial curve, poor fit] | –
O=c1c2c3c(sc2nc(NCCOCCO)n1Cc1ccco1)CCCCC3 | inactive | –
Cc1ccc2oc3c(c(=O)c2c1)C(c1ccc(O)cc1)N(Cc1ccc2c(c1)OCO2)C3=O (configuration not stated) | inconclusive [inhibitor, single point] | –
C#Cc1cccc(NC(=O)Cc2cccs2)c1 | inactive | –
COc1ccc(-n2c(SCC(=O)Nc3cc(C)on3)nc3c([nH]c4ccccc43)c2=O)cc1OC | inconclusive [inhibitor, single point] | –
COc1ccc(Cl)cc1NC(=O)CN(C)CC(=O)Nc1cccc(S(=O)(=O)N2CCCC2)c1 | inconclusive [inhibitor, single point] | –
CCNC(=O)C1(C)CCCN(Cc2cc3ccccc3o2)C1 (configuration not stated) | inconclusive [inhibitor, single point] | –
CCCNC(=O)Cn1nc(-c2ccccc2OC)ccc1=O | inactive | –
COc1cccc(NC(=O)/C=C\c2ccc(Cl)cc2)c1 | inconclusive [inhibitor, single point] | –
Cc1cccnc1C1=NOC(Cc2ccccc2)C(=O)N1CCOc1ccc(F)cc1 (configuration not stated) | active: 23.1 µM | –
CC(C)C[C@H](NC(=O)c1nc[nH]c1C(=O)N(C)Cc1ccccc1)C(=O)OCc1ccccc1 | inconclusive [inhibitor, single point] | –
CNC(=O)NC(=O)C(C)OC(=O)CCCc1nc2ccccc2s1 (configuration not stated) | inactive | –
Cc1cc(C)cc(N(CC(=O)NCc2ccc(F)cc2)C(=O)CCC(=O)Nc2ccccn2)c1 | inconclusive [inhibitor, partial curve, poor fit] | –
Cc1ccc(-c2c(C#N)c(N)n3c(nc4ccccc43)c2C#N)cc1 | active: 16.4 µM | –
O=C(NCCC1=CCCCC1)C1CCN(C(=O)Cc2ccccc2)CC1 | – | inconclusive: -33.5% [inhibitor]
Cc1cccc(NC(=O)c2cccc(S(=O)(=O)N(C)C3CCCCC3)c2)n1 | inconclusive [inhibitor, single point] | –
CC(C)CC(=O)N1CCN(C(=O)CCC2CCCC2)CC1 | inconclusive [inhibitor, single point] | –
Cn1cc(SCC(=O)N2CCCc3ccccc32)c2ccccc21 | inconclusive [inhibitor, single point] | –
COc1cc(/C=C2\SC(=S)N(CCC(=O)NC3CCCC3)C2=O)cc(OC)c1OC | inconclusive [inhibitor, single point] | –
COc1ccc2[nH]c(=O)c(CN(C(=O)c3cccc(Cl)c3)c3ccccc3C)cc2c1 | inconclusive [inhibitor, single point] | –
